The whole screen tested about 310,000 compounds, of which about 2,200 (0.71%) showed an effect of 50% or more. Effects have a minus sign here. The list shows a part of the results.

Sequence of human ether-à-go-go-related gene (hERG) potassium channel (Q12809 whole entry, looked up): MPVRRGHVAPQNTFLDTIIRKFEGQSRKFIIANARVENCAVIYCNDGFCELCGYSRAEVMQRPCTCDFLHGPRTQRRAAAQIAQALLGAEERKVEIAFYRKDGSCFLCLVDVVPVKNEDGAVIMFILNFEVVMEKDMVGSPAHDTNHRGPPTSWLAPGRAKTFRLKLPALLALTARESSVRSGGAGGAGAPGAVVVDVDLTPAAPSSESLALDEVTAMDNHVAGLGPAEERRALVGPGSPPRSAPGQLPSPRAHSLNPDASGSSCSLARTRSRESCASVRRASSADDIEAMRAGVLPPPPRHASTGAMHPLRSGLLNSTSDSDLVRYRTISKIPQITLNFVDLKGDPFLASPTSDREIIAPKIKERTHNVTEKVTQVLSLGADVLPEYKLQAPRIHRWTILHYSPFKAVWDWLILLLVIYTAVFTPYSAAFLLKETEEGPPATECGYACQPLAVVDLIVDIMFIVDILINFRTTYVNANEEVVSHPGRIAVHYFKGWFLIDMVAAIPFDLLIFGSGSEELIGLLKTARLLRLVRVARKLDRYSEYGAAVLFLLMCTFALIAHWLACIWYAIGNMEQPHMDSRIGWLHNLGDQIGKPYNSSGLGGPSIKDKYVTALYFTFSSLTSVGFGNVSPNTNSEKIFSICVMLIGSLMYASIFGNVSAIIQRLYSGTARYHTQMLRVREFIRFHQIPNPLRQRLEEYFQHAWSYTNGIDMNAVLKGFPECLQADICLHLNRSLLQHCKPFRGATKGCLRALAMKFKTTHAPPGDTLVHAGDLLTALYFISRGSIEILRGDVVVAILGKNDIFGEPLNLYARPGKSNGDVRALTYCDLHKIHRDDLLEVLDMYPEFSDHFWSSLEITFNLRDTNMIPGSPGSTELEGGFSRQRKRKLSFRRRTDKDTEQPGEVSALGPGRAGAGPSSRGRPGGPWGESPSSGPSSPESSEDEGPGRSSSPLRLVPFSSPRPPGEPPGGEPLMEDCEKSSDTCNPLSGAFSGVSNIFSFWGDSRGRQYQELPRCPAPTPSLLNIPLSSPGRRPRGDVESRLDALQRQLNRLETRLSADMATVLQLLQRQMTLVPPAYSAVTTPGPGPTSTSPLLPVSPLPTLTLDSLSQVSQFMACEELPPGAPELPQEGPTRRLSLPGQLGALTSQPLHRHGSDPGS

The assay concerns the target human ether-à-go-go-related gene (hERG) potassium channel (human, UniProt Q12809). The assay can be described thus: primary screen, population patch clamp on CHO cells stably expressing hERG.
Consider `Cn1c(=O)[nH]c(=O)c2c1nc(N1CCN(CCO)CC1)n2CCSc1nc2ccccc2s1`, for which the “hERG current change (%, negative = inhibition) at 1uM” value came out at 9.51%. In the case of `CCCn1c2ccc(/C(C)=N\O)cc2c2cc(/C(C)=N/O)ccc21`, the “hERG current change (%, negative = inhibition) at 1uM” value turned out to be 11.5%. `CCOc1ccc(C(=O)Nc2nnc(S(=O)(=O)N(C)Cc3ccco3)s2)cc1`: the “hERG current change (%, negative = inhibition) at 1uM” value is recorded as 6.72%.

Take `O=C(Nc1ccccc1)Nc1nc(-c2ccccc2)cs1`: the “hERG current change (%, negative = inhibition) at 1uM” value amounted to 16.5%. Regarding `CC(C)(C)/C(COc1ccccc1[N+](=O)[O-])=N/O`, the “hERG current change (%, negative = inhibition) at 1uM” value stood at 9%. In the case of `Cc1cc(OCc2cc(C(=O)NC(C)c3c(C)nn(C)c3C)no2)cc(C)c1Cl` (centres unmarked) it was -10.2%.

On to `COCCOC(=O)C1=C(N)OC2=C(C(=O)CC(C)(C)C2)C1c1ccncc1` (centres unmarked), for which the “hERG current change (%, negative = inhibition) at 1uM” value is given as 7.95%. As to `COc1ccccc1NC(=O)NN1CCCCC1`, the “hERG current change (%, negative = inhibition) at 1uM” value was -4.28%. In the case of `CCC(=O)N(c1nnc(SCC(=O)NN2C(=O)NC3(CCC(C)CC3)C2=O)s1)C1CC1` (centres unmarked) it was 5.39%; in that of `COc1ccc(-c2nn(-c3ccccc3)cc2/C=C2/SC(=S)N(CCC(=O)O)C2=O)cc1`, 16.9%.

As for `CCCc1cc(=O)oc2cc(OC(C)C(=O)NCC3CCC(C(=O)O)CC3)ccc12` (centres unmarked), the “hERG current change (%, negative = inhibition) at 1uM” value came out at 16.6%. With `O=C(Nc1ccc2oc(-c3ccccc3F)nc2c1)c1ccccc1F`, the “hERG current change (%, negative = inhibition) at 1uM” value is listed as 2.26%. Then `Cc1c(CN2CCC(n3nccc3NC(=O)c3cccc(F)c3)CC2)cnn1C`, with 16.9%; and `Cc1cccc(NC(=O)c2ccc(-n3cncn3)c([N+](=O)[O-])c2)c1`, with -20.2%; and `Cc1nsc2c1ccc1ccccc12`, with 8.16%. Then `Cc1snc(SCc2c(F)cccc2Cl)c1C#N`, with 14%; and `Cc1ccc(S(=O)(=O)N2CCCN(S(=O)(=O)c3ccc(C(F)(F)F)cc3)CC2)cc1`, with 4.46%. In the case of `Cc1ccc(N2C(=O)N(CC(=O)Nc3ccccc3C)C(=O)C2C)cc1` (centres unmarked) it was 8.03%. Turning to `O=C(NCc1ccc(F)cc1)c1noc2c1CCCC2`, the “hERG current change (%, negative = inhibition) at 1uM” value was 3.67%. With `COc1ccc(-c2c(-c3cc(OC)c(OC)c(OC)c3)noc2C)cn1`, the “hERG current change (%, negative = inhibition) at 1uM” value was -4.66%.

On to `Cc1ccc(SCC(=O)OCc2csc(CC(=O)Nc3ccccc3C)n2)cc1C`, for which the “hERG current change (%, negative = inhibition) at 1uM” value worked out at 5.37%. In the case of `O=C(Nc1ccc(NC(=O)c2cccc([N+](=O)[O-])c2)cc1)c1cccc([N+](=O)[O-])c1` it was 9.44%; in that of `CC1CCCN(C(=O)CCNC(=O)Cn2cnc3ccccc3c2=O)C1` (centres unmarked), 16.1%; in that of `CCCCC(=O)NCc1ccc(Cl)cc1`, 9.58%. In the case of `CC(CNC(=O)CC(C)(C)C)NC(=O)CC(C)(C)C` (centres unmarked) it was 5.95%; in that of `COc1ccc([C@H]2CC(=O)C=C(c3ccc(OC(F)(F)F)cc3)C2)cc1OC`, 1.69%.

Consider `CC1CN(C(c2cccs2)c2sc3ncnn3c2O)CC(C)O1` (centres unmarked), for which the “hERG current change (%, negative = inhibition) at 1uM” value was found to be 19.7%. Then `CCOC(=O)CCCNC(=O)CCNC(=O)c1ccc(OC)cc1`, with 1.57%; and `COc1cccc(/C(O)=C2/C(=O)C(=O)N(CCN(C)C)C2c2ccccn2)c1` (centres unmarked), with -9.56%. In the case of `O=C(Nc1cccc(S(=O)(=O)N2CCCCC2)c1)c1ccc(OCC2CCCO2)cc1` (centres unmarked) it was 7.59%; in that of `C=CCNC(=O)c1ccc(-c2ccc([N+](=O)[O-])cc2)o1`, -18.2%; in that of `O=[N+]([O-])c1ccc(NC(=S)NCCc2ccc(Cl)cc2)cc1`, 3.96%. In the case of `NC(=O)c1ccc(NC(=O)CN2CCN(S(=O)(=O)c3ccc4c(c3)OCCO4)CC2)cc1` it was 4.49%; in that of `NC(=O)c1ccsc1NC(=O)C1CC1`, 10.9%; in that of `CCN1CCN(C(=S)Nc2cc(C(=O)OC)ccc2C(=O)OC)CC1`, 6.5%. With `O=C(c1ccc(Br)cc1)N1CCC2(CC1)NCCc1[nH]cnc12`, the “hERG current change (%, negative = inhibition) at 1uM” value is on record as -37.5%. Then `Cc1onc(-c2c(F)cccc2Cl)c1C(=O)Nc1cccc(Cn2cccn2)c1`, with -2.11%. On to `CCC(C)(C)NC(=O)C(c1cccc(OC)c1OC)N(CCOC)C(=O)CCC(=O)Nc1cc(C)on1` (centres unmarked), for which the “hERG current change (%, negative = inhibition) at 1uM” value was 8.47%. In the case of `C=CCNc1c2c(nc3nnnn13)CCCC2` it was 9.9%; in that of `COc1ccc(Nc2ncc3c(n2)CC(c2ccc(C)cc2)CC3=O)cc1` (centres unmarked), 0.291%; in that of `CCC1Oc2ccc(C)cc2N(CC(=O)N(Cc2ccc(C)o2)C2CCCC2)C1=O` (centres unmarked), 9.41%. In the case of `CN(CC(=O)NC1CCCc2ccccc21)S(=O)(=O)c1cccs1` (centres unmarked) it was 6.6%; in that of `c1ccc(C(c2nnnn2C2CCCC2)N2CCN(c3ccccc3)CC2)cc1` (centres unmarked), -5.63%. Then `COc1ccc(S(=O)(=O)N(C(C)=O)c2ccc3oc(=O)sc3c2)cc1`, with 2.66%; and `O=C(NCC1CCCO1)c1c(O)c2cccc3c2n(c1=O)CCC3` (centres unmarked), with 7.11%. As for `C[C@H](N)c1nnc(SCC(=O)c2ccc(Cl)cc2)o1`, the “hERG current change (%, negative = inhibition) at 1uM” value is reported as -3.17%. In the case of `Cc1cc(=O)[nH]c(SCc2ccc(Cl)cc2)n1` it was 11.3%. As to `CN(C)NC(=O)c1ccsc1NC(=O)c1ccc(S(=O)(=O)N2CCCC2)cc1`, the “hERG current change (%, negative = inhibition) at 1uM” value came to 8.64%. In the case of `COCCCNC(=O)CNC(=S)N(Cc1ccccc1F)C1CCCCC1` it was -6.9%; in that of `Cc1sc2nc(SC3CCOC3=O)n(Cc3ccccc3)c(=O)c2c1C` (centres unmarked), -5.42%. In the case of `Cc1onc(-c2ccccc2Cl)c1C(=O)Nc1c(C)n(C)n(-c2ccccc2)c1=O` it was 6.24%; in that of `Cc1ccc(C)c(NC(=O)CCNS(=O)(=O)c2ccc3[nH]c(=O)oc3c2)c1`, 10.6%. In the case of `O=C(c1ccc(C(F)(F)F)cc1)N1CCC(=O)N(C(COCc2ccccc2)Cc2ccccc2)CC1` (centres unmarked) it was -0.658%; in that of `Cc1cccc(C(=O)Nc2ccc(O)cc2C(=O)O)c1`, -0.283%; in that of `Cn1c(SCC(=O)NCc2ccco2)nnc1C1CCCC1`, 11.7%. Turning to `CC1CN(C(=S)Nc2cccc(Cl)c2)CC(C)O1` (centres unmarked), the “hERG current change (%, negative = inhibition) at 1uM” value stood at 17.7%.

On to `COc1ccc(/C=N/NS(=O)(=O)c2ccc(F)cc2)cc1CN1CCSCC1`, for which the “hERG current change (%, negative = inhibition) at 1uM” value was 7.52%. For `O=C(Cc1n[nH]c(=O)[nH]c1=O)N/N=C/c1cccc(O)c1`, the “hERG current change (%, negative = inhibition) at 1uM” value turned out to be 9.82%.

Regarding `Cc1ccc2c(c1)nnn2C1CCN(S(=O)(=O)c2cccc(S(=O)(=O)N(C)C)c2)CC1`, the “hERG current change (%, negative = inhibition) at 1uM” value was found to be 8.71%. Turning to `Cc1cc(Br)ccc1NC(=O)CSc1nnc(CN2CCOCC2)n1C`, the “hERG current change (%, negative = inhibition) at 1uM” value came out at 12.3%. In the case of `CN(C)c1ccc(/C=C(\NC(=O)c2ccccc2)C(=O)NCCCN2CCOCC2)cc1` it was 11.5%; in that of `CN(C)C1=NC[C@H](Cc2ccccc2)N1CC1CCC(C(C)(C)C)CC1` (some centres unmarked), -2.63%. In the case of `CC1CCCCN1S(=O)(=O)c1ccc(C(=O)Nc2nnc(-c3ccccn3)o2)cc1` (centres unmarked) it was 14.5%. In the case of `Cc1cc(=O)c2ccc(Cl)cc2[nH]1` it was 17.6%; in that of `Br.CC(C)(C)C(=O)CN1C2=NCCN2c2ccccc21`, 2.72%; in that of `CCCCCCCCCCCC1=C(O)C(=O)C=C(O)C1=O`, 14.4%. Take `O=C(NCCCN1CCCC1=O)c1cc(-c2cccnc2)nc2ccc(Cl)cc12`: the “hERG current change (%, negative = inhibition) at 1uM” value came out at 0.512%.

For the compound `Cc1ccc(C(=O)NC(=S)N2CCCCCC2)cc1`, the “hERG current change (%, negative = inhibition) at 1uM” value is reported as -2%.

On to `CSc1nnc(NC(=O)C23CC4CC(CC(C4)C2)C3)s1`, for which the “hERG current change (%, negative = inhibition) at 1uM” value is given as 11.3%.

Take `FC(F)(F)c1cccc(NC(=S)NC2CCCC2)c1`: the “hERG current change (%, negative = inhibition) at 1uM” value is given as 12.2%.

For the compound `Cc1cc(=O)n2c(ccc3ccccc32)c1C#N`, the “hERG current change (%, negative = inhibition) at 1uM” value is listed as 3.24%. Then `O=C1OC(Nc2cc(Br)cc3cccnc23)c2ccccc21` (centres unmarked), with -0.215%. Turning to `CCC(C)NC(=O)CSc1nc2ccsc2c(=O)n1NC(=O)c1ccccc1` (centres unmarked), the “hERG current change (%, negative = inhibition) at 1uM” value is on record as 10.1%. In the case of `Cc1ccc(C(=O)N/C(=C/c2ccc(Cl)cc2)C(=O)NCC2CCCO2)cc1` (centres unmarked) it was -5.12%; in that of `O=C(CSC1=NCCS1)NC1CCCC1`, 4.35%; in that of `CC(C)n1nc(C(=O)Nc2nnc(C3CC3)s2)c2ccccc2c1=O`, 11.5%. In the case of `CCCN1C2CCCC1CC(NC(=S)Nc1cc(C)cc(C)c1)C2` (centres unmarked) it was -81.4%.

Regarding `O=C(CC1C(=O)NCCN1C(=S)Nc1ccccc1)Nc1ccc2c(c1)OCCO2` (centres unmarked), the “hERG current change (%, negative = inhibition) at 1uM” value was -1.18%. Then `COc1ccc(C(C(=O)NC2CCCC2)N(Cc2ccccc2)C(=O)c2snc(C(N)=O)c2N)cc1OC` (centres unmarked), with 7.99%. Turning to `CCOCC(=O)Nc1c(C)n(C)n(-c2ccccc2)c1=O`, the “hERG current change (%, negative = inhibition) at 1uM” value is on record as 10.8%. In the case of `O=C(COC(=O)c1ccc(Br)o1)Nc1nc2c(F)c(F)c(F)cc2s1` it was 13.8%; in that of `CC(C)CNC(=O)CSc1nnc(-c2ccc(Cl)cc2)n1N`, 3%; in that of `COCCNP(=O)(c1ccccc1)c1nc2ccccc2s1` (centres unmarked), -5.08%.

For `CCOc1ccc(-c2nc(CSCC(=O)NCCN3CCOCC3)c(C)o2)cc1`, the “hERG current change (%, negative = inhibition) at 1uM” value is on record as 9.19%. As for `COc1ccc(C(=O)Nc2ccc(S(=O)(=O)Nc3onc(C)c3C)cc2)c(OC)c1`, the “hERG current change (%, negative = inhibition) at 1uM” value worked out at 9.23%. In the case of `O=C(NC1CCCCCC1)C1c2ccccc2C(=O)N1Cc1ccco1` (centres unmarked) it was -3.1%; in that of `Cl.O=C(CN1C2CCC1CC(NC(=O)NC1CCCCC1)C2)NC1CC1` (centres unmarked), 6.8%. `CCCCn1c(-c2cccc(C)c2)nc2cc3[nH]c(=O)c(C(C)C)nc3cc21`: the “hERG current change (%, negative = inhibition) at 1uM” value came to 12.5%. In the case of `CC1CC(C)CN(S(=O)(=O)c2ccc(C(=O)NN3CCOCC3)cc2)C1` (centres unmarked) it was 7.08%.

Source of the values: paper PMC4336329 (PLoS ONE, 2015).
